Source: publication PMC4336329 (PLoS ONE, 2015)
Among all 310,000 compounds or so, about 14,000 (4.5%) showed an effect of 50% or more. The effect is printed as a negative number. This is one part of the list.
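Further: peak tail current of the secondary pulse compared with the same well before compound.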

What follows are molecules tested against human ether-à-go-go-related gene (hERG) potassium channel (human, UniProt Q12809) (assay: primary screen, population patch clamp on CHO cells stably expressing hERG).
Chain of human ether-à-go-go-related gene (hERG) potassium channel (Q12809 whole entry, looked up): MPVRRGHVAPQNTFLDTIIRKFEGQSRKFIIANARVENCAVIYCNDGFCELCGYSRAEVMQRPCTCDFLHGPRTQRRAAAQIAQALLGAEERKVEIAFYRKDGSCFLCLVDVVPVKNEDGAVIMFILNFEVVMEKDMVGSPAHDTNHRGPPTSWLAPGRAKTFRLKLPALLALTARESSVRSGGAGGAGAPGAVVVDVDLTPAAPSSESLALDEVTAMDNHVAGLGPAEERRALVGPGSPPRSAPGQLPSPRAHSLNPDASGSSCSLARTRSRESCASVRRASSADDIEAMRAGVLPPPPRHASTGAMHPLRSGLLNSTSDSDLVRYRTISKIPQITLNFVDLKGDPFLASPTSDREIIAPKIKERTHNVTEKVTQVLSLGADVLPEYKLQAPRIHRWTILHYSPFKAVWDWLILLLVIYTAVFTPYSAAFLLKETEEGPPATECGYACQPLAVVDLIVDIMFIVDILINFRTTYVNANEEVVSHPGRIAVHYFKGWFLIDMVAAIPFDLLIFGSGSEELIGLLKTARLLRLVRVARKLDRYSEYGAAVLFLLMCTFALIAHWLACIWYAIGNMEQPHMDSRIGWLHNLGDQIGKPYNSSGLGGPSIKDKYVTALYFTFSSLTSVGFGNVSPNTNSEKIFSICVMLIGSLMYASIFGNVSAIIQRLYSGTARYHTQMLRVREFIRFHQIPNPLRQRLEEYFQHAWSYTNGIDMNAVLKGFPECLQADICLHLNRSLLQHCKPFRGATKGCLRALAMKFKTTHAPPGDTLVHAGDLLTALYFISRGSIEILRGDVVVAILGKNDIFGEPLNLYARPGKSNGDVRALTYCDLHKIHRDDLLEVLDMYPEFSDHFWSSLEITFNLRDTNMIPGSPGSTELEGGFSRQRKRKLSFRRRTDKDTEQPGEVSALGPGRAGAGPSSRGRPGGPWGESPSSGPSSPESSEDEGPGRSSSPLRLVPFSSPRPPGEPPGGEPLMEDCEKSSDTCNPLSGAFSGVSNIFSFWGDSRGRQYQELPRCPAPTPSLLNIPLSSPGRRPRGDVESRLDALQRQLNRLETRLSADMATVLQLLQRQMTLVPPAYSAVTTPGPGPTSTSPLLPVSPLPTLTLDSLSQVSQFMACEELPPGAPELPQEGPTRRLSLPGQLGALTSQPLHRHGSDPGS
`CCOC(=O)C1CCN(Cc2cnc(Oc3ccc(OC)cc3)s2)CC1` was tested, and the “hERG current change (%, negative = inhibition) at 10uM” value was -17.3%.
In the case of `CCOC(=O)N1CCC(NCCNC(=O)c2ccc(F)c(F)c2)CC1.Cl`, the “hERG current change (%, negative = inhibition) at 10uM” value is reported as -37.3%.
With `CC(C)CNC(=O)COC(=O)c1cccc(S(=O)(=O)NCC(F)(F)F)c1` the “hERG current change (%, negative = inhibition) at 10uM” value was 5.98%.
With `CCOc1ccc(S(=O)(=O)Nc2cccc(C(=O)N(C)CC(=O)Nc3cccc(OC)c3)c2)cc1` the “hERG current change (%, negative = inhibition) at 10uM” value was -9.89%.
`Cn1c(C(O)c2ccc(Cl)cc2)nc(Cl)c1Cl` (stereo not shown) was tested, and the “hERG current change (%, negative = inhibition) at 10uM” value was -9.61%.
In the case of `OC(CNCC1CCCO1)Cn1c2ccc(Br)cc2c2cc(Br)ccc21` (stereo not shown), the “hERG current change (%, negative = inhibition) at 10uM” value is reported as -30%.
`C=C(C)Cn1c(C2CC(=O)N(c3ccccc3F)C2)nc2ccccc21` (stereo not shown) was tested, and the “hERG current change (%, negative = inhibition) at 10uM” value was -27%.
For `O=S(=O)(/N=C(/Nc1ccc(F)c(F)c1F)c1ccccc1)c1ccccc1`, the “hERG current change (%, negative = inhibition) at 10uM” value was 15.6%.
With `Cc1cccc(N2C(=O)NC(=O)/C(=C/c3ccc([N+](=O)[O-])o3)C2=O)c1` the “hERG current change (%, negative = inhibition) at 10uM” value was 18.8%.
With `Cc1c(NC(=O)C(C)Sc2ncnc3ccccc23)c(=O)n(-c2ccccc2)n1C` (stereo not shown) the “hERG current change (%, negative = inhibition) at 10uM” value was 10.9%.
With `CN(C(=O)CSc1nc2ccccc2n1C)C1CCS(=O)(=O)C1` (stereo not shown) the “hERG current change (%, negative = inhibition) at 10uM” value was 1.63%.
For `CC(=O)c1c(OC(=O)c2ccccc2)ccnc1C(F)(F)F`, the “hERG current change (%, negative = inhibition) at 10uM” value was -11.8%.
In the case of `Cc1ccc(Nc2c(-c3ccco3)nc3nc(C)cc(C)n23)cc1`, the “hERG current change (%, negative = inhibition) at 10uM” value is reported as -29.1%.
`Cc1oc2cc3oc(=O)c(CCC(=O)NC4CC4)c(C)c3cc2c1C` was tested, and the “hERG current change (%, negative = inhibition) at 10uM” value was 8.94%.
For `COc1ccc(/C=C/C(O)=C(\C#N)c2nnc(N3CCOCC3)n2-c2ccccc2)cc1OC`, the “hERG current change (%, negative = inhibition) at 10uM” value was 19.3%.
For `CCOc1ccc(C(=O)NN2CCOCC2)cc1`, the “hERG current change (%, negative = inhibition) at 10uM” value was 4.51%.
With `O=C(Nc1ncc(Cc2cccc(Cl)c2)s1)c1cccs1` the “hERG current change (%, negative = inhibition) at 10uM” value was 0.893%.
`COc1ccc(/C=N/NC(=O)c2cccc([N+](=O)[O-])c2)cc1OC` was tested, and the “hERG current change (%, negative = inhibition) at 10uM” value was 5.28%.
`COc1ccc(OCC(=O)Nc2nonc2NC(=O)COc2ccc(OC)cc2)cc1` was tested, and the “hERG current change (%, negative = inhibition) at 10uM” value was 13.3%.
In the case of `CC(C)NC(=O)C1CCN(Cc2cnn(-c3ccccc3)c2-n2cccc2)CC1`, the “hERG current change (%, negative = inhibition) at 10uM” value is reported as -8.99%.
`CC1=C(C(=O)NC(C)C)C2(CCC(C)CC2)OC1=O` (stereo not shown) was tested, and the “hERG current change (%, negative = inhibition) at 10uM” value was 13.7%.
With `CCc1ccc(NC(=O)C(=O)N/N=C(\C)CC(=O)Nc2ccccn2)cc1` the “hERG current change (%, negative = inhibition) at 10uM” value was -8.33%.
With `COc1ccccc1NC(=O)c1cc(C(=O)Nc2ccccc2OC)cc(N2C(=O)CCC2=O)c1` the “hERG current change (%, negative = inhibition) at 10uM” value was 16.9%.
With `CC(NC(=O)COc1ccc(N(C)S(=O)(=O)c2ccccc2)cc1)c1ccccc1` (stereo not shown) the “hERG current change (%, negative = inhibition) at 10uM” value was 1.23%.
`Cc1ccc(C(C)NC(=O)/C(C#N)=C\c2c(C)[nH]c3ccccc23)cc1` (stereo not shown) was tested, and the “hERG current change (%, negative = inhibition) at 10uM” value was 6.88%.
For `Cc1ccc(C(=O)OCC(=O)Nc2ccc(N(C)C)cc2)cc1NC(=O)c1ccco1`, the “hERG current change (%, negative = inhibition) at 10uM” value was 0.251%.
For `Fc1ccccc1-c1nc(-c2ccncc2)no1`, the “hERG current change (%, negative = inhibition) at 10uM” value was 1.32%.
`Cc1nnc(NC(=O)c2cccc(S(=O)(=O)N3CCc4ccccc43)c2)s1` was tested, and the “hERG current change (%, negative = inhibition) at 10uM” value was -3.52%.
With `O=c1ncn(-c2cccc(F)c2)c2ncccc12` the “hERG current change (%, negative = inhibition) at 10uM” value was 18.4%.
With `Cc1cc(C)cc(N2CC(C(=O)NC3CCCCC3)CC2=O)c1` (stereo not shown) the “hERG current change (%, negative = inhibition) at 10uM” value was 5.86%.
`COC(=O)c1cc(OC)c(OC)cc1NC(=S)N1CCN(C)CC1` was tested, and the “hERG current change (%, negative = inhibition) at 10uM” value was 10.8%.
`COc1ccc(/C=N/NC(=O)c2cccnc2)c(C(=O)O)c1OC` was tested, and the “hERG current change (%, negative = inhibition) at 10uM” value was 9.69%.
For `CCN(CC)Cc1cc(C(=O)O)c(-c2ccccc2)o1.Cl`, the “hERG current change (%, negative = inhibition) at 10uM” value was 10.5%.
In the case of `O=C(O)c1ccc(NS(=O)(=O)c2ccc(C(=O)Nc3ccccc3)cc2)cc1`, the “hERG current change (%, negative = inhibition) at 10uM” value is reported as -8.65%.
In the case of `CN(CC(=O)NCC(c1ccccc1)N1CCCC1)S(=O)(=O)c1ccc(Cl)cc1` (stereo not shown), the “hERG current change (%, negative = inhibition) at 10uM” value is reported as -49.3%.
With `O=[N+]([O-])c1ccccc1-c1ccc(/C=N/n2cnnc2)o1` the “hERG current change (%, negative = inhibition) at 10uM” value was -29.6%.
With `COc1cc2c(cc1OC)CN(c1nc(-c3cccnc3)nc3ccccc13)CC2` the “hERG current change (%, negative = inhibition) at 10uM” value was 0.829%.
With `CC(C)(C)c1ccc(C(=O)Nc2ccc(F)cc2)s1` the “hERG current change (%, negative = inhibition) at 10uM” value was 6.85%.
In the case of `Cn1nc([N+](=O)[O-])nc1Sc1ccc(C(C)(C)C)cc1`, the “hERG current change (%, negative = inhibition) at 10uM” value is reported as -11%.
`O=C(NC1CCCCC1)N1CCc2ccccc2C1` was tested, and the “hERG current change (%, negative = inhibition) at 10uM” value was 8.85%.
For `COCC(C)NC(=O)CSc1nnc(-c2cccc(S(=O)(=O)N3CCCCC3)c2)o1` (stereo not shown), the “hERG current change (%, negative = inhibition) at 10uM” value was 7.45%.
`C=CCNc1nc(C(F)(F)F)nc2c1nnn2Cc1ccccc1Cl` was tested, and the “hERG current change (%, negative = inhibition) at 10uM” value was -6.29%.
For `CCc1ccc(-c2csc3ncn(Cc4ccc(C(=O)O)cc4)c(=O)c23)cc1`, the “hERG current change (%, negative = inhibition) at 10uM” value was 4.9%.
